The list shows a part of the results.
Columns and labels:
Test in all cases: glycan array binding signal (z-score within array); higher = stronger binding
Conditions in all cases: glycan notation: IUPAC condensed, linker removed
[1] = target: Gal(b1-4)GlcNAc(b1-3)Gal(b1-4)Glc
How it was run: (§1)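 Glycan array binding is given as a within-array Z-score, which can be read as non-binding when negative. The arrays, 3228 of them, came from the Consortium for Functional Glycomics database and were retained only where the protein sequence was available. Z-scores were averaged across arrays of the same protein sequence at different concentrations or buffers and across linkers.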

[2] = target: Gal(b1-4)GlcNAc(b1-3)Gal(b1-4)GlcNAc
How it was run: as §1

[3] = target: Gal(b1-4)GlcNAc(b1-3)Gal(b1-4)GlcNAc(b1-2)Man(a1-3)[Gal(b1-4)GlcNAc(b1-3)Gal(b1-4)GlcNAc(b1-2)Man(a1-6)]Man(b1-4)GlcNAc(b1-4)GlcNAc
How it was run: as §1

[4] = target: Gal(b1-4)GlcNAc(b1-3)Gal(b1-4)GlcNAc(b1-2)Man(a1-3)[Gal(b1-4)GlcNAc(b1-3)Gal(b1-4)GlcNAc(b1-2)Man(a1-6)]Man(b1-4)GlcNAc(b1-4)[Fuc(a1-6)]GlcNAc
How it was run: as §1

[5] = target: Gal(b1-4)GlcNAc(b1-3)Gal(b1-4)GlcNAc(b1-2)[Gal(b1-4)GlcNAc(b1-3)Gal(b1-4)GlcNAc(b1-6)]Man(a1-6)[Gal(b1-4)GlcNAc(b1-3)Gal(b1-4)GlcNAc(b1-2)Man(a1-3)]Man(b1-4)GlcNAc(b1-4)GlcNAc
How it was run: as §1

[6] = target: Gal(b1-4)GlcNAc(b1-3)Gal(b1-4)GlcNAc(b1-2)[Gal(b1-4)GlcNAc(b1-3)Gal(b1-4)GlcNAc(b1-6)]Man(a1-6)[Gal(b1-4)GlcNAc(b1-3)Gal(b1-4)GlcNAc(b1-2)Man(a1-3)]Man(b1-4)GlcNAc(b1-4)[Fuc(a1-6)]GlcNAc
How it was run: as §1

[7] = target: Gal(b1-4)GlcNAc(b1-3)Gal(b1-4)GlcNAc(b1-3)Gal(b1-4)GlcNAc
How it was run: as §1

[8] = target: Gal(b1-4)GlcNAc(b1-3)Gal(b1-4)GlcNAc(b1-3)Gal(b1-4)GlcNAc(b1-2)Man(a1-3)[Gal(b1-4)GlcNAc(b1-3)Gal(b1-4)GlcNAc(b1-3)Gal(b1-4)GlcNAc(b1-2)Man(a1-6)]Man(b1-4)GlcNAc(b1-4)GlcNAc
How it was run: as §1

[9] = target: Gal(b1-4)GlcNAc(b1-3)Gal(b1-4)GlcNAc(b1-3)Gal(b1-4)GlcNAc(b1-2)Man(a1-3)[Gal(b1-4)GlcNAc(b1-3)Gal(b1-4)GlcNAc(b1-3)Gal(b1-4)GlcNAc(b1-2)Man(a1-6)]Man(b1-4)GlcNAc(b1-4)[Fuc(a1-6)]GlcNAc
How it was run: as §1

[10] = target: Gal(b1-4)GlcNAc(b1-3)Gal(b1-4)GlcNAc(b1-3)Gal(b1-4)GlcNAc(b1-2)[Gal(b1-4)GlcNAc(b1-3)Gal(b1-4)GlcNAc(b1-3)Gal(b1-4)GlcNAc(b1-6)]Man(a1-6)[Gal(b1-4)GlcNAc(b1-3)Gal(b1-4)GlcNAc(b1-3)Gal(b1-4)GlcNAc(b1-2)Man(a1-3)]Man(b1-4)GlcNAc(b1-4)[Fuc(a1-6)]GlcNAc
How it was run: as §1

[11] = target: Gal(b1-4)GlcNAc(b1-3)Gal(b1-4)GlcNAc(b1-3)Gal(b1-4)GlcNAc(b1-3)Gal(b1-4)GlcNAc(b1-2)Man(a1-3)[Gal(b1-4)GlcNAc(b1-3)Gal(b1-4)GlcNAc(b1-3)Gal(b1-4)GlcNAc(b1-3)Gal(b1-4)GlcNAc(b1-2)Man(a1-6)]Man(b1-4)GlcNAc(b1-4)GlcNAc
How it was run: as §1

[12] = target: Gal(b1-4)GlcNAc(b1-3)Gal(b1-4)GlcNAc(b1-3)Gal(b1-4)GlcNAc(b1-3)Gal(b1-4)GlcNAc(b1-2)Man(a1-3)[Gal(b1-4)GlcNAc(b1-3)Gal(b1-4)GlcNAc(b1-3)Gal(b1-4)GlcNAc(b1-3)Gal(b1-4)GlcNAc(b1-2)Man(a1-6)]Man(b1-4)GlcNAc(b1-4)[Fuc(a1-6)]GlcNAc
How it was run: as §1

[13] = target: Gal(b1-4)GlcNAc(b1-3)Gal(b1-4)GlcNAc(b1-3)Gal(b1-4)GlcNAc(b1-3)Gal(b1-4)GlcNAc(b1-2)[Gal(b1-4)GlcNAc(b1-3)Gal(b1-4)GlcNAc(b1-3)Gal(b1-4)GlcNAc(b1-3)Gal(b1-4)GlcNAc(b1-6)]Man(a1-6)[Gal(b1-4)GlcNAc(b1-3)Gal(b1-4)GlcNAc(b1-3)Gal(b1-4)GlcNAc(b1-3)Gal(b1-4)GlcNAc(b1-2)Man(a1-3)]Man(b1-4)GlcNAc(b1-4)[Fuc(a1-6)]GlcNAc
How it was run: as §1

[14] = target: Gal(b1-4)GlcNAc(b1-3)Gal(b1-4)GlcNAc(b1-3)Gal(b1-4)GlcNAc(b1-3)Gal(b1-4)GlcNAc(b1-3)Gal(b1-4)GlcNAc(b1-2)Man(a1-3)[Gal(b1-4)GlcNAc(b1-3)Gal(b1-4)GlcNAc(b1-3)Gal(b1-4)GlcNAc(b1-3)Gal(b1-4)GlcNAc(b1-3)Gal(b1-4)GlcNAc(b1-2)Man(a1-6)]Man(b1-4)GlcNAc(b1-4)GlcNAc
How it was run: as §1

[15] = target: Gal(b1-4)GlcNAc(b1-3)Gal(b1-4)GlcNAc(b1-3)Gal(b1-4)GlcNAc(b1-3)Gal(b1-4)GlcNAc(b1-3)Gal(b1-4)GlcNAc(b1-2)Man(a1-3)[Gal(b1-4)GlcNAc(b1-3)Gal(b1-4)GlcNAc(b1-3)Gal(b1-4)GlcNAc(b1-3)Gal(b1-4)GlcNAc(b1-3)Gal(b1-4)GlcNAc(b1-2)Man(a1-6)]Man(b1-4)GlcNAc(b1-4)[Fuc(a1-6)]GlcNAc
How it was run: as §1

[16] = target: Gal(b1-4)GlcNAc(b1-3)Gal(b1-4)GlcNAc(b1-3)Gal(b1-4)GlcNAc(b1-3)Gal(b1-4)GlcNAc(b1-3)Gal(b1-4)GlcNAc(b1-2)[Gal(b1-4)GlcNAc(b1-3)Gal(b1-4)GlcNAc(b1-3)Gal(b1-4)GlcNAc(b1-3)Gal(b1-4)GlcNAc(b1-3)Gal(b1-4)GlcNAc(b1-6)]Man(a1-6)[Gal(b1-4)GlcNAc(b1-3)Gal(b1-4)GlcNAc(b1-3)Gal(b1-4)GlcNAc(b1-3)Gal(b1-4)GlcNAc(b1-3)Gal(b1-4)GlcNAc(b1-2)Man(a1-3)]Man(b1-4)GlcNAc(b1-4)[Fuc(a1-6)]GlcNAc
How it was run: as §1

[17] = target: Gal(b1-4)GlcNAc(b1-3)Gal(b1-4)GlcNAc(b1-3)Gal(b1-4)GlcNAc(b1-3)Gal(b1-4)GlcNAc(b1-3)Gal(b1-4)GlcNAc(b1-3)Gal(b1-4)GlcNAc(b1-2)Man(a1-3)[Gal(b1-4)GlcNAc(b1-3)Gal(b1-4)GlcNAc(b1-3)Gal(b1-4)GlcNAc(b1-3)Gal(b1-4)GlcNAc(b1-3)Gal(b1-4)GlcNAc(b1-3)Gal(b1-4)GlcNAc(b1-2)Man(a1-6)]Man(b1-4)GlcNAc(b1-4)GlcNAc
How it was run: as §1

[18] = target: Gal(b1-4)GlcNAc(b1-3)Gal(b1-4)GlcNAc(b1-3)GalNAc
How it was run: as §1

[19] = target: Gal(b1-4)GlcNAc(b1-3)Gal(b1-4)GlcNAc(b1-3)[Gal(b1-4)GlcNAc(b1-3)Gal(b1-4)GlcNAc(b1-6)]GalNAc
How it was run: as §1

B1: Cohesin-hDECTIN-1 (Homo sapiens) (protein)
chain: LDITSHHHHHHDDLDAVRIKVDTVNAKPGDTVRIPVRFSGIPSKGIANCDFVYSYDPNVLEIIEIEPGDIIVDPNPDKSFDTAVYPDRKIIVFLFAEDSGTGAYAITKDGVFATIVAKVKEGAPNGLSVIKFVEVGGFANNDLVEQKTQFFDGGVNVGDTTEPATPTTPVTTPTTTDDLDAASSSPCPPNWIIYEKSCYLFSMSLNSWDGSKRQCWQLGSNLLKIDSSNELGFIVKQVSSQPDNSFWIGLSRPQTEVPWLWEDGSTFSSNLFQIRTTATQENPSPNCVWIHVSVIYDQLCSVPSYSICEKKFM
glycan array binding signal (z-score) [1]: -0.403
glycan array binding signal (z-score) [2]: -0.182
glycan array binding signal (z-score) [3]: 2.71
glycan array binding signal (z-score) [4]: 0.966
glycan array binding signal (z-score) [5]: 0.801
glycan array binding signal (z-score) [6]: 0.231
glycan array binding signal (z-score) [7]: -0.489
glycan array binding signal (z-score) [8]: 0.563
glycan array binding signal (z-score) [9]: -0.009
glycan array binding signal (z-score) [10]: 0.446
glycan array binding signal (z-score) [11]: 0.569
glycan array binding signal (z-score) [12]: 1.23
glycan array binding signal (z-score) [13]: 0.658
glycan array binding signal (z-score) [14]: 0.502
glycan array binding signal (z-score) [15]: 0.463
glycan array binding signal (z-score) [16]: 0.788
glycan array binding signal (z-score) [17]: -0.346
glycan array binding signal (z-score) [18]: -0.199
glycan array binding signal (z-score) [19]: -0.226
